Assay results from the supplement of paper PMC8728848.
The other results are listed elsewhere or left out.

Key:
Experiment in all cases: glycan array binding signal (z-score within array); higher = stronger binding
Settings in all cases: glycan notation: IUPAC condensed, linker removed
Fuc(a1-2)Gal = molecular target: Fuc(a1-2)Gal
Method in brief: (§1)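 The binding signal is a Z-score computed within each array and averaged over linkers. Arrays of the same protein sequence at different concentrations or buffers were also averaged together. Data originate from 3228 arrays in the Consortium for Functional Glycomics database, kept only where the protein sequence was available.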

Fuc(a1-2)Gal(b1-3)GalNAc = molecular target: Fuc(a1-2)Gal(b1-3)GalNAc
Method in brief: as §1

[1] = molecular target: Fuc(a1-2)Gal(b1-3)GalNAc(a1-3)[Fuc(a1-2)]Gal(b1-4)Glc
Method in brief: as §1

[2] = molecular target: Fuc(a1-2)Gal(b1-3)GalNAc(a1-3)[Fuc(a1-2)]Gal(b1-4)GlcNAc
Method in brief: as §1

[3] = molecular target: Fuc(a1-2)Gal(b1-3)GalNAc(b1-3)Gal
Method in brief: as §1

[4] = molecular target: Fuc(a1-2)Gal(b1-3)GalNAc(b1-3)Gal(a1-4)Gal(b1-4)Glc
Method in brief: as §1

[5] = molecular target: Fuc(a1-2)Gal(b1-3)GalNAc(b1-4)[Neu5Ac(a2-3)]Gal(b1-4)Glc
Method in brief: as §1

Fuc(a1-2)Gal(b1-3)GlcNAc = molecular target: Fuc(a1-2)Gal(b1-3)GlcNAc
Method in brief: as §1

[6] = molecular target: Fuc(a1-2)Gal(b1-3)GlcNAc(b1-2)Man(a1-3)[Fuc(a1-2)Gal(b1-3)GlcNAc(b1-2)Man(a1-6)]Man(b1-4)GlcNAc(b1-4)GlcNAc
Method in brief: as §1

[7] = molecular target: Fuc(a1-2)Gal(b1-3)GlcNAc(b1-2)Man(a1-3)[Fuc(a1-2)Gal(b1-3)GlcNAc(b1-2)Man(a1-6)]Man(b1-4)GlcNAc(b1-4)[Fuc(a1-6)]GlcNAc
Method in brief: as §1

[8] = molecular target: Fuc(a1-2)Gal(b1-3)GlcNAc(b1-3)Gal(b1-4)Glc
Method in brief: as §1

[9] = molecular target: Fuc(a1-2)Gal(b1-3)GlcNAc(b1-3)GalNAc
Method in brief: as §1

[10] = molecular target: Fuc(a1-2)Gal(b1-3)GlcNAc(b1-3)[Fuc(a1-2)Gal(b1-3)GlcNAc(b1-6)]GalNAc
Method in brief: as §1

[11] = molecular target: Fuc(a1-2)Gal(b1-3)GlcNAc(b1-3)[Gal(b1-4)GlcNAc(b1-6)]Gal(b1-4)Glc
Method in brief: as §1

[12] = molecular target: Fuc(a1-2)Gal(b1-3)GlcNAc(b1-3)[Neu5Ac(a2-6)Gal(b1-4)GlcNAc(b1-6)]Gal(b1-4)Glc
Method in brief: as §1

[13] = molecular target: Fuc(a1-2)Gal(b1-3)GlcNAc6S
Method in brief: as §1

[14] = molecular target: Fuc(a1-2)Gal(b1-3)[Fuc(a1-4)]GlcNAc
Method in brief: as §1

[15] = molecular target: Fuc(a1-2)Gal(b1-3)[Fuc(a1-4)]GlcNAc(b1-2)Man(a1-3)[Fuc(a1-2)Gal(b1-3)[Fuc(a1-4)]GlcNAc(b1-2)Man(a1-3)]Man(b1-4)GlcNAc(b1-4)GlcNAc
Method in brief: as §1

[16] = molecular target: Fuc(a1-2)Gal(b1-3)[Fuc(a1-4)]GlcNAc(b1-2)Man(a1-3)[Fuc(a1-2)Gal(b1-3)[Fuc(a1-4)]GlcNAc(b1-2)Man(a1-6)]Man(b1-4)GlcNAc(b1-4)[Fuc(a1-6)]GlcNAc(b1-4)[Fuc(a1-6)]GlcNAc
Method in brief: as §1

[17] = molecular target: Fuc(a1-2)Gal(b1-3)[Fuc(a1-4)]GlcNAc(b1-3)[Fuc(a1-3)[Gal(b1-4)]GlcNAc(b1-6)]Gal(b1-4)Glc
Method in brief: as §1

[18] = molecular target: Fuc(a1-2)Gal(b1-3)[Fuc(a1-4)]GlcNAc(b1-3)[Gal(b1-4)GlcNAc(b1-6)]Gal(b1-4)Glc
Method in brief: as §1

Fuc(a1-2)Gal(b1-4)Glc = molecular target: Fuc(a1-2)Gal(b1-4)Glc
Method in brief: as §1

Fuc(a1-2)Gal(b1-4)Glc6S = molecular target: Fuc(a1-2)Gal(b1-4)Glc6S
Method in brief: as §1

Fuc(a1-2)Gal(b1-4)GlcNAc = molecular target: Fuc(a1-2)Gal(b1-4)GlcNAc
Method in brief: as §1

[19] = molecular target: Fuc(a1-2)Gal(b1-4)GlcNAc(b1-2)Man
Method in brief: as §1

[20] = molecular target: Fuc(a1-2)Gal(b1-4)GlcNAc(b1-2)Man(a1-3)[Fuc(a1-2)Gal(b1-4)GlcNAc(b1-2)Man(a1-6)]Man(b1-4)GlcNAc(b1-4)GlcNAc
Method in brief: as §1

[21] = molecular target: Fuc(a1-2)Gal(b1-4)GlcNAc(b1-2)Man(a1-3)[Fuc(a1-2)Gal(b1-4)GlcNAc(b1-2)Man(a1-6)]Man(b1-4)GlcNAc(b1-4)[Fuc(a1-6)]GlcNAc
Method in brief: as §1

[22] = molecular target: Fuc(a1-2)Gal(b1-4)GlcNAc(b1-2)[Fuc(a1-2)Gal(b1-4)GlcNAc(b1-4)]Man(a1-3)[Fuc(a1-2)Gal(b1-4)GlcNAc(b1-2)Man(a1-6)]Man(b1-4)GlcNAc(b1-4)GlcNAc
Method in brief: as §1

[23] = molecular target: Fuc(a1-2)Gal(b1-4)GlcNAc(b1-3)Gal(b1-4)GlcNAc
Method in brief: as §1

[24] = molecular target: Fuc(a1-2)Gal(b1-4)GlcNAc(b1-3)Gal(b1-4)GlcNAc(b1-2)Man(a1-3)[Fuc(a1-2)Gal(b1-4)GlcNAc(b1-3)Gal(b1-4)GlcNAc(b1-2)Man(a1-6)]Man(b1-4)GlcNAc(b1-4)GlcNAc
Method in brief: as §1

[25] = molecular target: Fuc(a1-2)Gal(b1-4)GlcNAc(b1-3)Gal(b1-4)GlcNAc(b1-3)Gal(b1-4)GlcNAc
Method in brief: as §1

[26] = molecular target: Fuc(a1-2)Gal(b1-4)GlcNAc(b1-3)GalNAc
Method in brief: as §1

[27] = molecular target: Fuc(a1-2)Gal(b1-4)GlcNAc(b1-3)[Fuc(a1-2)Gal(b1-4)GlcNAc(b1-6)]GalNAc
Method in brief: as §1

[28] = molecular target: Fuc(a1-2)Gal(b1-4)GlcNAc(b1-3)[Fuc(a1-3)[Gal(b1-4)]GlcNAc(b1-6)]Gal(b1-4)Glc
Method in brief: as §1

[29] = molecular target: Fuc(a1-2)Gal(b1-4)GlcNAc(b1-6)GalNAc
Method in brief: as §1

[30] = molecular target: Fuc(a1-2)Gal(b1-4)GlcNAc6S
Method in brief: as §1

[31] = molecular target: Fuc(a1-2)Gal(b1-4)[Fuc(a1-3)]GlcNAc
Method in brief: as §1

[32] = molecular target: Fuc(a1-2)Gal(b1-4)[Fuc(a1-3)]GlcNAc(b1-2)Man(a1-3)[Fuc(a1-2)Gal(b1-4)[Fuc(a1-3)]GlcNAc(b1-2)Man(a1-6)]Man(b1-4)GlcNAc(b1-4)[Fuc(a1-6)]GlcNAc
Method in brief: as §1

[33] = molecular target: Fuc(a1-2)Gal(b1-4)[Fuc(a1-3)]GlcNAc(b1-2)[Fuc(a1-2)Gal(b1-4)[Fuc(a1-3)]GlcNAc(b1-4)]Man(a1-3)[Fuc(a1-2)Gal(b1-4)[Fuc(a1-3)]GlcNAc(b1-2)Man(a1-6)]Man(b1-4)GlcNAc(b1-4)GlcNAc
Method in brief: as §1

[34] = molecular target: Fuc(a1-2)Gal(b1-4)[Fuc(a1-3)]GlcNAc(b1-3)Gal(b1-4)[Fuc(a1-3)]GlcNAc
Method in brief: as §1

[35] = molecular target: Fuc(a1-2)Gal(b1-4)[Fuc(a1-3)]GlcNAc(b1-3)Gal(b1-4)[Fuc(a1-3)]GlcNAc(b1-3)Gal(b1-4)[Fuc(a1-3)]GlcNAc
Method in brief: as §1

[36] = molecular target: Fuc(a1-2)Gal(b1-4)[Fuc(a1-3)]GlcNAc(b1-3)GalNAc
Method in brief: as §1

[37] = molecular target: Fuc(a1-2)Gal(b1-4)[Fuc(a1-3)]GlcNAc(b1-3)[Neu5Ac(a2-6)Gal(b1-4)GlcNAc(b1-6)]Gal(b1-4)Glc
Method in brief: as §1

[38] = molecular target: Fuc(a1-2)Gal3S(b1-4)GlcNAc
Method in brief: as §1

[39] = molecular target: Fuc(a1-2)Gal6S(b1-3)GlcNAc
Method in brief: as §1

B1: GS7807E-bfa-538-23-538 (Bacteroides fragilis) (protein)
chain: TDSFESFNTNEAGFDNDSKKQDFNYYGIPLGIIQQGIYFNYDWGSGKNWPFQTMQNLGADLFSGYVHDFNPFNEGKNNSTYYMMDGWNGSTWDNTYGYIMPEVQKSETINEKDNIGFFGITKILKVELMHRLSDLYGPIVYTQFGSKTGSTPDTQQEAYKAFFNDLDTGIAKIREYQKANPDIESFAKFDILMPQGKRTFSEWIRFANSLRLRLAVRIAMADSKLAVAEAQKALTDEEGLLEGNDEVVAVSTSSGYTNPFGEINKAWGEVFMNANMESLLVGYEDPRMEKYFDKATGSDATSLIDYKGTYKGIRQGTGFSHKNYNGHSKSTITQQTDAVLMTPAEVWFLRAEAALRGWSSESVKDCYEKGVKASFAQWGAAGAEAYLESDRKPSDYVDAFKAANNVKAVNTLTPKWDDAAGNEDKLGRIITQKWLAMFPEGGEAWAEQRRTGYPRLFPVLVNQSEGTVDTNLGPRRLNFFVGIKTTNPEQYTQLVNALGGIDNCGTRLWWDTGRNF
glycan array binding signal (z-score) (Fuc(a1-2)Gal): -0.69
glycan array binding signal (z-score) (Fuc(a1-2)Gal(b1-3)GalNAc): -0.7
glycan array binding signal (z-score) [1]: -0.431
glycan array binding signal (z-score) [2]: -0.557
glycan array binding signal (z-score) [3]: -0.644
glycan array binding signal (z-score) [4]: -0.439
glycan array binding signal (z-score) [5]: -0.645
glycan array binding signal (z-score) (Fuc(a1-2)Gal(b1-3)GlcNAc): -0.623
glycan array binding signal (z-score) [6]: 3.42
glycan array binding signal (z-score) [7]: 0.117
glycan array binding signal (z-score) [8]: -0.602
glycan array binding signal (z-score) [9]: -0.218
glycan array binding signal (z-score) [10]: 0.796
glycan array binding signal (z-score) [11]: 1.03
glycan array binding signal (z-score) [12]: 1.06
glycan array binding signal (z-score) [13]: -0.635
glycan array binding signal (z-score) [14]: -0.622
glycan array binding signal (z-score) [15]: 0.046
glycan array binding signal (z-score) [16]: -0.121
glycan array binding signal (z-score) [17]: -0.426
glycan array binding signal (z-score) [18]: -0.553
glycan array binding signal (z-score) (Fuc(a1-2)Gal(b1-4)Glc): -0.662
glycan array binding signal (z-score) (Fuc(a1-2)Gal(b1-4)Glc6S): -0.576
glycan array binding signal (z-score) (Fuc(a1-2)Gal(b1-4)GlcNAc): -0.678
glycan array binding signal (z-score) [19]: -0.64
glycan array binding signal (z-score) [20]: 1.21
glycan array binding signal (z-score) [21]: -0.382
glycan array binding signal (z-score) [22]: 0.002
glycan array binding signal (z-score) [23]: -0.652
glycan array binding signal (z-score) [24]: 0.102
glycan array binding signal (z-score) [25]: -0.462
glycan array binding signal (z-score) [26]: -0.372
glycan array binding signal (z-score) [27]: 0.486
glycan array binding signal (z-score) [28]: -0.593
glycan array binding signal (z-score) [29]: 2.1
glycan array binding signal (z-score) [30]: -0.178
glycan array binding signal (z-score) [31]: -0.65
glycan array binding signal (z-score) [32]: 0.392
glycan array binding signal (z-score) [33]: 0.988
glycan array binding signal (z-score) [34]: -0.698
glycan array binding signal (z-score) [35]: -0.685
glycan array binding signal (z-score) [36]: -0.087
glycan array binding signal (z-score) [37]: -0.569
glycan array binding signal (z-score) [38]: -0.564
glycan array binding signal (z-score) [39]: -0.392
